SMILES strings stand for the structures. About 4,300 (8.3%) of roughly 52,000 compounds were called active. Cut-off read from the data, not from the text of the source: active = survival mostly below about 52% (no sharp cut-off); inactive = mostly above about 56%. The list shows a part of the results.

For the experiment, the system named is DeltatarO mutant. The experiment in a line: S. aureus survival, RN4220 and DeltatarO strains – OD600, teichoic acid synthesis inhibitors, primary screen (AID 463173). The conditions noted are these: S. aureus RN4220 wild type/DeltatarO growth, OD600, 18 h, stronger effect = lower value, screened at 18.75 µg/mL (by protocol).
Consider `CCCN(CCC)CCNC(=O)CN1C(=O)COc2ccc(S(=O)(=O)N3CCOCC3)cc21`, for which the survival is inactive: 79%.
For `Cc1cccc(OCC(=O)NCCc2nc3ccccc3[nH]2)c1C` the value was inactive: 79%; for `O=C(NCc1ccccc1Cl)C1CCN(C(=O)N2CCOc3ccccc32)CC1`, inactive: 83%; for `CCC(CC)C(=O)Nc1nnc(S(=O)(=O)N2CCc3ccccc32)s1`, inactive: 73%.
The value for `CCOc1ccc(-n2nc(CO)c(C(=O)NCc3ccccn3)n2)cc1` was inactive: 53%; that for `COC(=O)c1ccccc1NC(=O)c1cnn(-c2ccc(F)cc2)c1-n1cccc1` was inactive: 95%.
The value for `Cc1ccc(Nc2nc(C(=O)NCC3CCCO3)cs2)cc1` (centres undefined) was inactive: 95%; that for `NCCCNC(=O)c1ccco1` was inactive: 94%.
As to `Cc1ccc(CN(C(=O)COc2ccccc2[N+](=O)[O-])c2ccccn2)cc1`, the survival was inactive: 46%.
Turning to `COc1ccc(C)cc1NC(=O)Nc1cc(C(=O)NCc2ccc(C)cc2)ccc1N1CCCC1`, the survival was inactive: 82%.
The value for `COc1ccc(-c2nc3sc(CCNC(=O)Cc4ccc(F)cc4)c(C)n3n2)cc1` was inactive: 94%; that for `Cc1sc(-c2cc3ccccc3oc2=O)nc1-c1ccc(Cl)c(Cl)c1` was inactive: 115%; that for `CCOc1ccc(CNCc2c(C(=O)O)c(C)n(Cc3ccc(C)cc3)c2C)cc1` was inactive: 80%.
For `Cc1nnc(N2CCCC(C(=O)NCCN(C)C)C2)c2nn(-c3ccccc3)c(C)c12` (centres undefined) the value was inactive: 88%; for `CCOc1ccccc1OCCCCn1c(-c2ccc(Cl)cc2)nc2ccccc2c1=O`, inactive: 45%; for `COc1ccc(N2CCN(C(=O)C3CCN(S(=O)(=O)c4cccc5nonc45)CC3)CC2)cc1`, inactive: 115%.
For `CCN1CCN(CCCNC(=O)CS(=O)(=O)Cc2nc(-c3ccccc3C)oc2C)CC1` the value was inactive: 78%; for `Cc1cc(C)cc(NC(=O)c2ccc3oc(=O)c(S(=O)(=O)c4ccc(F)cc4)cc3c2)c1`, inactive: 90%; for `COc1ccc(NC(=O)Cn2c(=O)c3cccn3c3ccccc32)cc1Cl`, active: 42%.
As for `COc1cccc2sc(NC(=O)c3ccc(S(=O)(=O)N4CCC(C)CC4)cc3)nc12`, the survival was inactive: 95%.
`CCOC(=O)c1noc2ncnc(Nc3cc(Cl)c(OC)cc3OC)c12`: the survival is inactive: 99%.
The value for `CC(C)c1ccc(-c2noc(SCC(=O)N3CCCCC3C)n2)cc1` (centres undefined) was inactive: 87%; that for `Cc1cc(=O)n(Cc2ccc(F)cc2Cl)c2c1c(C)nn2C` was inactive: 60%.
The value for `O=C(NCCCN1CCN(c2ccc(F)cc2)CC1)c1cc2c(Cl)nc3ccccc3c2s1` was inactive: 91%; that for `Cc1cccc(-c2nc(CCNC(=O)c3ccc(Br)o3)cs2)c1` was inactive: 89%; that for `CCc1ccccc1Nc1ccc(C(=O)O)cn1` was inactive: 93%.
The value for `CCC(Sc1nc(-c2ccccc2)[nH]c1S(=O)(=O)c1ccc(C)cc1)C(=O)O` (centres undefined) was inactive: 80%; that for `CC1CCC(N2CC(=O)N(CCC3=CCCCC3)C(c3ccc(F)cc3)C2=O)CC1` (centres undefined) was inactive: 83%.
Consider `COc1ccc(OC)c(NC(=O)c2cnc(Nc3ccc(C)c(Cl)c3)c3ccccc23)c1`, for which the survival was active: 44%.
For `CCOc1ccc(NC(=O)c2c(NCc3cccnc3)sc3c2CCC(C)C3)cc1` (centres undefined) the value was inactive: 125%; for `CC(=O)c1sc(NC(=O)c2c(-c3ccccc3)c(-c3ccccc3)nn(C)c2=O)nc1C`, inactive: 47%; for `CCN1CCN(C(=O)c2cnn(-c3ccc(F)cc3F)c2C2CCN(C(=O)OC(C)(C)C)CC2)CC1`, inactive: 86%.
For `CCN(CC)C(=O)Cn1c(=O)n(-c2ccc(C)c(C)c2)c(=O)c2c(C)c(C(=O)N(CC)CC)sc21` the value was inactive: 95%.
The value for `CCCCCN1C(C(=O)c2ccccc2)=C(NC(=O)c2ccc(C)cc2)c2ccccc2S1(=O)=O` was inactive: 74%; that for `CC1CCc2onc(C(=O)N3CCN(c4ccc(F)cc4)CC3)c2C1` (centres undefined) was inactive: 74%; that for `CCOc1ccc(NC(=O)CCNS(=O)(=O)c2ccc3c(c2)CCCC(=O)N3)cc1` was inactive: 66%.
In the case of `COc1cc(Cl)c(NC(=O)CCc2nc3cccnc3n2-c2ccccc2)c(OC)c1`, the survival was inactive: 80%.
For `Cn1c(CO)nc2cc(N)ccc21` the value was inactive: 100%.
For `CC1=C(C(=O)Nc2ccc(Cl)cc2)C(c2cccs2)n2nc(SCc3cccc(C)c3)nc2N1` (centres undefined) the value was inactive: 88%; for `O=C(CSc1nc2cc3ccccc3cc2[nH]1)Nc1ccc(F)cc1`, inactive: 62%; for `O=C(NCCc1nc2ccccc2n1Cc1c(F)cccc1Cl)c1ccco1`, inactive: 70%.
For `CC(C)(C)OC(=O)N1CCC(c2c(C(=O)N3CCN(c4ccccc4F)CC3)cnn2-c2ccccc2Cl)CC1` the value was inactive: 78%; for `Cc1ccc(NC(=O)c2cnc(SCC(=O)N3CCCc4ccccc43)n(C)c2=O)cc1`, inactive: 74%.
Take `COc1cccc(N2C(=O)C(CC(=O)Nc3ccccc3)N(CCc3sccc3C)C2=O)c1` (centres undefined): the survival was inactive: 64%.
For `CCc1ccccc1NC(=O)CN1C(=O)C2CCCN2c2ccc(S(=O)(=O)N(CC)CC)cc21` (centres undefined), the survival is inactive: 72%.
The value for `Cc1ccc2oc(-c3cc(N=C/C=C/c4ccc5c(c4)OCO5)ccc3O)nc2c1` was inactive: 83%.
As to `Cc1cccc(NC(=O)C2CCCN(S(=O)(=O)c3ccc4c(c3)oc(=O)n4C)C2)c1C` (centres undefined), the survival was inactive: 83%.
The value for `COC(=O)c1c(NC(=O)COc2ccc(C)cc2Br)sc2c1CCCC2` was inactive: 61%; that for `Cc1ccc(CNC(=O)CN(C)S(=O)(=O)c2ccc3c(c2)c(=O)n(C)c(=O)n3C)cc1` was inactive: 78%; that for `CCOc1ccc(N(C)S(=O)(=O)c2cc(-c3cc(C)no3)ccc2OC)cc1` was inactive: 81%.
For `CCS(=O)(=O)N1CC(=O)N(c2ccc(Cl)cc2C)C(C)(C(=O)NC2CCCCC2)C1` (centres undefined) the value was inactive: 86%.
The value for `O=C(NCCc1ccc(F)cc1)C(=O)NCC(c1cccs1)S(=O)(=O)c1ccc(Cl)cc1` (centres undefined) was inactive: 74%; that for `O=C(CSc1nnc(-c2ccccc2)c(-c2ccccc2)n1)NCCc1ccccc1` was inactive: 83%.
Consider `COc1ccc(C(=O)Nc2ccccc2C(=O)Nc2ccccn2)cc1`, for which the survival was inactive: 94%.
The value for `CCn1c(=O)c2cc(C(=O)NCc3ccc(F)cc3Cl)sc2c2ccccc21` was inactive: 95%.
The value for `Cc1ccc(C)c(N(C)C(=O)c2cc3c(s2)-c2ccccc2OC3)c1` was active: -3%; that for `Cc1cc(C)c(OCC(=O)N(Cc2ccc(N(C)C)cc2)CC2CCCO2)c(C)c1` (centres undefined) was inactive: 57%.
For `Cc1c(CNC2CCC(C)CC2)c(C(=O)O)c(C)n1Cc1ccc(Cl)cc1` (centres undefined) the value was inactive: 83%; for `CCOC(=O)C(CC)Sc1ncnc2c1c(-c1ccccc1)cn2-c1ccc(OC)cc1` (centres undefined), inactive: 58%.
With `CCN(CC)c1ccc(NS(=O)(=O)c2cc(-c3onc(C)c3C)ccc2OC)c(C)c1`, the survival is inactive: 78%.
The value for `CC1CC2(C)CC(C)C1(COC(=O)Nc1ccccc1)CO2` (centres undefined) was inactive: 89%.
The value for `Cc1ccc2c(=O)cc(C(=O)Nc3ccc(S(=O)(=O)N4CCCCC4C)cc3)oc2c1C` (centres undefined) was inactive: 79%.
The value for `CC(=O)Nc1cc(C(=O)NCc2ccc(F)cc2)ccc1S(=O)(=O)c1ccc(C)cc1` was inactive: 78%; that for `COc1ccc(NC(=O)c2cn3ccc(C)cc3n2)cc1` was inactive: 50%.
For `COc1cccc(-c2nnc(SCC(=O)N(C)c3ccccc3)o2)c1`, the survival is inactive: 91%.
The value for `CC(=O)c1ccc(NC(=O)C(C)n2nc(-c3ccccc3)ccc2=O)cc1` (centres undefined) was active: 32%.
The value for `CCOC(=O)c1ccc(NC(=O)CC2C(=O)N(c3cccc(OC)c3)C(=O)N2Cc2cccnc2)cc1` (centres undefined) was inactive: 103%; that for `CCn1c2ccccc2c2cc(CN3CCN(Cc4ccc(Cl)cc4)CC3)ccc21` was active: -1%.
For `Cc1cc(C)nc(/N=C2\NC(=O)CC3C(=O)NCCN23)n1` (centres undefined) the value was inactive: 100%.
For `CCc1cccc(C)c1NC(=O)CCCn1c(C)c2cnn(-c3ccccc3)c(=O)c2c1C`, the survival was inactive: 65%.
For `CCCN(C(=O)Cc1nc(-c2ccc(OC)cc2)no1)c1ccccc1C` the value was inactive: 85%.
The value for `CCC(C)NC(=O)Cn1c(=O)n(CCCCCC(=O)Nc2ccccc2)c(=O)c2sccc21` (centres undefined) was inactive: 102%; that for `CCCCOC(=O)c1ccc(OC(=O)c2sc3ncn(Cc4cccc(F)c4)c(=O)c3c2C)cc1` was inactive: 80%.
The value for `CCOC(=O)c1[nH]c(C)c(CCC(=O)Nc2ccccc2OCC)c1C` was inactive: 75%.
Consider `CN1C(=O)CC(C(=O)Nc2ccc(C(=O)O)cc2)SC1=Nc1ccc(Cl)cc1` (centres undefined), for which the survival was inactive: 67%.
Turning to `CNc1nc2c(c(=O)[nH]c(=O)n2C)n1Cc1cccc2ccccc12`, the survival is inactive: 85%.
The value for `Cn1c(=O)c2c(nc(NCCCCO)n2Cc2ccccc2Cl)n(C)c1=O` was inactive: 63%; that for `COc1ccc(C(=O)Nc2nnc(SCc3cc(=O)c4cccc(F)c4[nH]3)s2)cc1` was inactive: 89%.
For `COc1ccc2c(C)c(CCC(=O)NCCc3ccc(OC)c(OC)c3)c(=O)oc2c1` the value was inactive: 88%.
For `CN(C)CC(O)COc1ccc2ccccc2c1` (centres undefined), the survival is inactive: 104%.
For `Cc1ccnc(N2CCC(C(=O)NCc3ccc(F)cc3)CC2)n1` the value was inactive: 86%; for `CCOc1ccc(-c2nn(-c3ccc(F)cc3)c3c2cnc2ccc(F)cc23)cc1`, inactive: 81%; for `Cc1ccc2oc(-c3ccc(Cl)cc3)c(O)c(=O)c2c1`, inactive: 72%.
`Cc1cc(O)c(C(c2ccccc2)N2CCN(c3ccccc3)CC2)c(=O)n1Cc1ccco1` (centres undefined): the survival was inactive: 71%.
For `O=C(NC1CC2CCCC(C1)N2C(=O)Nc1ccccc1)C1CC1` (centres undefined) the value was inactive: 61%.
For `Cc1cccc(C)c1NC(=O)Cn1cc(C(=O)c2ccco2)c2ccccc21` the value was inactive: 63%; for `O=C(Cn1ncc2c3ccccc3n(Cc3cccc(Cl)c3)c2c1=O)NCCCc1ccccc1`, inactive: 93%; for `COc1ccc(-c2c(C)nn3c(-c4ccccc4)cc(C)nc23)cc1OC`, active: 38%.
As for `CCc1nc(Nc2ccc(F)c(Cl)c2)c2c3c(sc2n1)CCCC3`, the survival was active: -4%.

The record behind these values is PubChem BioAssay AID463173 (ICCB-Longwood Screening Facility, Harvard Medical School, 2010).
